Reference: PMC7956344, “Structure Elucidation and Cholinesterase Inhibition Activity of Two New Minor Amaryllidaceae Alkaloids” (Molecules, 2021)
Where two headings read alike, the source gives them in different places.

Tests used:
[1] = target: T1, human acetylcholinesterase (hAChE) (Homo sapiens, UniProt P22303); details: previously isolated narcikachnine-type alkaloids, cited from earlier work
[2] = target: T1, human acetylcholinesterase (hAChE); test: biochemical; details: for IC50: mean ± SEM of three independent measurements, each in triplicate; for % Inhibition hAChE ± SEM / inhibition at 100 µM: tested at 100 µM compound concentration; for % Inhibition hAChE ± SEM: 100 µM; for inhibition at 100 µM: read-out: % Inhibition hAChE ± SEM

Row | Structure (SMILES) | IC50 [1] | IC50 ([1]; listed as Narcipavline) | IC50 [2] | % Inhibition hAChE ± SEM [2] | inhibition at 100 µM [2]
1 | COc1ccc2c3c1OC1CC(O)CCC31CCN(Cc1cc3c(cc1-c1cccc4ccn(C)c14)OCO3)C2 (centres unmarked) [narcipavline] | 208 ± 37 µM | > 200 µM | – | – | –
2 | COc1cc(-c2cccc3c2N(C)CC3)c(CN2CC[C@@]34C=C[C@H](O)C[C@@H]3Oc3c(OC)ccc(c34)C2)cc1O [narciabduliine (2), narciabduliine] | – | – | 3.29 ± 0.73 µM | 94.7 ± 0.7% | > 90%
3 | COc1cc2c(cc1O)[C@@H](O)O[C@@H]1CC=C3CCN(C)[C@H]3[C@H]21 [9-O-demethyllycorenine (1), 9-O-demethyllycorenine] | – | – | > 100 µM | almost devoid of cholinesterase inhibitory activity | 3.1 ± 1.2%
